The list shows a part of the results. Many values rest on one well or one pass, so single values are uncertain.
Assays:
Experiment in all cases: cell count relative to DMSO control; melanoma cells; higher = more viable cells
Settings in all cases: library dose: standard library concentration; 72 h
SkMel28 = system: SkMel28
SkMel2 = system: SkMel2
SkMel30 = system: SkMel30
SkMel5 = system: SkMel5
UACC257 = system: UACC257
UACC62 = system: UACC62
WM115 = system: WM115
WM1716 = system: WM1716
WM1745 = system: WM1745
WM3526 = system: WM3526
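Further: cells treated in 1,536-well plates, then fixed and DAPI-stained, with nuclei counted from automated high-throughput microscope images.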

Row | Structure (SMILES) | cell count (SkMel28) [%] | cell count (SkMel2) [%] | cell count (SkMel30) [%] | cell count (SkMel5) [%] | cell count (UACC257) [%] | cell count (UACC62) [%] | cell count (WM115) [%] | cell count (WM1716) [%] | cell count (WM1745) [%] | cell count (WM3526) [%]
1 | CS(=O)(=O)CCNCc1ccc(-c2ccc3ncnc(Nc4ccc(OCc5cccc(F)c5)c(Cl)c4)c3c2)o1 [lapatinib] + Cc1nc(Nc2ncc(C(=O)Nc3c(C)cccc3Cl)s2)cc(N2CCN(CCO)CC2)n1 [dasatanib] (first compound 4 µM, partner dose 0.02 µM) | 85.7 | 77.7 | 80.5 | 53.5 | 80.7 | 51.2 | 69.2 | 60.8 | 31.3 | 82.7
2 | C=CCNC1=C2C[C@@H](C)C[C@H](OC)[C@H](O)[C@@H](C)/C=C(\C)[C@H](OC(N)=O)[C@@H](OC)/C=C\C=C(/C)C(=O)NC(=CC1=O)C2=O [Tanespimycin] + COc1cc(Nc2ncc(F)c(Nc3ccc4c(n3)NC(=O)C(C)(C)O4)n2)cc(OC)c1OC [Tamatinib] (first compound 0.01 µM, partner dose 2 µM) | 38.5 | 78.1 | 91.2 | 38.3 | 70.8 | 32.5 | 17 | 61.3 | 23 | 47.4
3 | CNC(=O)c1cc(Oc2ccc(NC(=O)Nc3ccc(Cl)c(C(F)(F)F)c3)cc2)ccn1 [sorafenib] + Nc1nc(F)nc2c1ncn2[C@@H]1O[C@H](CO)[C@@H](O)[C@@H]1O [fludarabine] (first compound 2 µM, partner dose 1 µM) | 6.37 | 3.66 | 26.5 | 39.9 | 57.1 | 83.2 | 121 | 99.3 | 77.2 | 45.6
4 | CS(=O)(=O)CCNCc1ccc(-c2ccc3ncnc(Nc4ccc(OCc5cccc(F)c5)c(Cl)c4)c3c2)o1 [lapatinib] + COc1cc2c(Oc3ccc4[nH]c(C)cc4c3F)ncnc2cc1OCCCN1CCCC1 [cediranib] (first compound 4 µM, partner dose 2 µM) | 59.9 | 69.5 | 66 | 55.3 | 74 | 28.1 | 93 | 64.5 | 75 | 65.1
5 | CS(=O)(=O)CCNCc1ccc(-c2ccc3ncnc(Nc4ccc(OCc5cccc(F)c5)c(Cl)c4)c3c2)o1 [lapatinib] + C=CCn1c(=O)c2cnc(Nc3ccc(N4CCN(C)CC4)cc3)nc2n1-c1cccc(C(C)(C)O)n1 [MK1775] (first compound 4 µM, partner dose 0.1 µM) | 54.9 | 73.8 | 66.3 | 43.8 | 84.7 | 51.7 | 61.9 | 75.3 | 59.5 | 69.3
6 | CNC(=O)c1cc(Oc2ccc(NC(=O)Nc3ccc(Cl)c(C(F)(F)F)c3)cc2)ccn1 [sorafenib] + C=C(c1ccc(C(=O)O)cc1)c1cc2c(cc1C)C(C)(C)CCC2(C)C [Bexarotene] (first compound 2 µM, partner dose 10 µM) | 59.2 | 84.1 | 89.6 | 81.3 | 71.2 | 100 | 128 | 103 | 85.8 | 60.9
7 | C=CCNC1=C2C[C@@H](C)C[C@H](OC)[C@H](O)[C@@H](C)/C=C(\C)[C@H](OC(N)=O)[C@@H](OC)/C=C\C=C(/C)C(=O)NC(=CC1=O)C2=O [Tanespimycin] + Nc1cccc2c1CN(C1CCC(=O)NC1=O)C2=O [lenalidomide] (first compound 0.01 µM, partner dose 5 µM) | 31.3 | 87.5 | 89.8 | 62.7 | 109 | 41.7 | 30.2 | 88.5 | 71.1 | 68.3
8 | C=CCNC1=C2C[C@@H](C)C[C@H](OC)[C@H](O)[C@@H](C)/C=C(\C)[C@H](OC(N)=O)[C@@H](OC)/C=C\C=C(/C)C(=O)NC(=CC1=O)C2=O [Tanespimycin] + Clc1ccc(Nc2nnc(Cc3ccncc3)c3ccccc23)cc1 [vatalanib] (first compound 0.01 µM, partner dose 10 µM) | 60.8 | 74.2 | 92 | 58.5 | 71.2 | 69.4 | 35.1 | 75.6 | 36.8 | 71.8
9 | CNC(=O)c1cc(Oc2ccc(NC(=O)Nc3ccc(Cl)c(C(F)(F)F)c3)cc2)ccn1 [sorafenib] + Nc1ncn([C@H]2C[C@H](O)[C@@H](CO)O2)c(=O)n1 [decitabine] (first compound 2 µM, partner dose 0.5 µM) | 94.8 | 90.5 | 112 | 78.6 | 89 | 67.3 | 113 | 87.9 | 113 | 88.8
10 | CN1CCN(c2ccc3nc(-c4c(N)c5c(F)cccc5[nH]c4=O)[nH]c3c2)CC1 [Dovitinib] + C[C@]1(c2nc3c(C(N)=O)cccc3[nH]2)CCCN1 [Veliparib] (first compound 0.5 µM, partner dose 7 µM) | 50 | 68.2 | 58.3 | 57.6 | 72.4 | 61.2 | 61.9 | 64.3 | 54 | 71.1
11 | C=CCNC1=C2C[C@@H](C)C[C@H](OC)[C@H](O)[C@@H](C)/C=C(\C)[C@H](OC(N)=O)[C@@H](OC)/C=C\C=C(/C)C(=O)NC(=CC1=O)C2=O [Tanespimycin] + C=CCn1c(=O)c2cnc(Nc3ccc(N4CCN(C)CC4)cc3)nc2n1-c1cccc(C(C)(C)O)n1 [MK1775] (first compound 0.01 µM, partner dose 0.1 µM) | 28.9 | 59.1 | 82.5 | 40.6 | 83 | 50.7 | 25.1 | 98.8 | 46.6 | 69.6
12 | C[C@@H](Oc1cc(-c2cnn(C3CCNCC3)c2)cnc1N)c1c(Cl)ccc(F)c1Cl [Crizotinib] + C[C@]1(c2nc3c(C(N)=O)cccc3[nH]2)CCCN1 [Veliparib] (first compound 1 µM, partner dose 7 µM) | 49.9 | 73.2 | 72.3 | 62.3 | 78.6 | 59.3 | 42 | 74.2 | 42.5 | 68.8
13 | C[C@@H](Oc1cc(-c2cnn(C3CCNCC3)c2)cnc1N)c1c(Cl)ccc(F)c1Cl [Crizotinib] + CCCS(=O)(=O)Nc1ccc(F)c(C(=O)c2c[nH]c3ncc(Cl)cc23)c1F [PLX4720] (first compound 1 µM, partner dose 0.4 µM) | 50.8 | 97.4 | 109 | 84.4 | 92.2 | 81 | 53.7 | 61.4 | 73.9 | 71.5
14 | CS(=O)(=O)CCNCc1ccc(-c2ccc3ncnc(Nc4ccc(OCc5cccc(F)c5)c(Cl)c4)c3c2)o1 [lapatinib] + Cc1cc(N2CCOCC2)cc2[nH]c(-c3c(NC[C@@H](O)c4cccc(Cl)c4)cc[nH]c3=O)nc12 [BMS536924] (first compound 4 µM, partner dose 1 µM) | 58.4 | 69.6 | 78.5 | 41.2 | 76.4 | 65.9 | 80.8 | 80 | 51.2 | 60.2
15 | CN1CCN(c2ccc3nc(-c4c(N)c5c(F)cccc5[nH]c4=O)[nH]c3c2)CC1 [Dovitinib] + Cc1cc(N2CCOCC2)cc2[nH]c(-c3c(NC[C@@H](O)c4cccc(Cl)c4)cc[nH]c3=O)nc12 [BMS536924] (first compound 0.5 µM, partner dose 1 µM) | 48.4 | 38.2 | 71.2 | 47.5 | 79.3 | 71.8 | 68.4 | 79.5 | 20.7 | 54.3
16 | CN1CCN(c2ccc3nc(-c4c(N)c5c(F)cccc5[nH]c4=O)[nH]c3c2)CC1 [Dovitinib] + COc1ccc(Cl)c(Nc2nc3ccccc3nc2NS(=O)(=O)c2cccc(NC(=O)C(C)(C)N)c2)c1 [XL147] (first compound 0.5 µM, partner dose 4 µM) | 65.4 | 101 | 92.5 | 70.5 | 71.4 | 74.8 | 83 | 69.7 | 66.2 | 101
17 | CN1CCN(c2ccc3nc(-c4c(N)c5c(F)cccc5[nH]c4=O)[nH]c3c2)CC1 [Dovitinib] + CC(=O)c1c(C)c2cnc(Nc3ccc(N4CCNCC4)cn3)nc2n(C2CCCC2)c1=O [palbociclib] (first compound 0.5 µM, partner dose 0.2 µM) | 31.8 | 51.5 | 43.6 | 55.5 | 70.3 | 71.2 | 45.9 | 35.9 | 54.5 | 48.9
18 | C=CCNC1=C2C[C@@H](C)C[C@H](OC)[C@H](O)[C@@H](C)/C=C(\C)[C@H](OC(N)=O)[C@@H](OC)/C=C\C=C(/C)C(=O)NC(=CC1=O)C2=O [Tanespimycin] + CO[C@@H]1[C@H](N(C)C(=O)c2ccccc2)C[C@H]2O[C@]1(C)n1c3ccccc3c3c4c(c5c6ccccc6n2c5c31)C(=O)NC4 [Midostaurin] (first compound 0.01 µM, partner dose 0.4 µM) | 39.6 | 63.9 | 87.8 | 43.2 | 66.9 | 43.5 | 22.6 | 32.6 | 17.6 | 67.2
19 | CS(=O)(=O)CCNCc1ccc(-c2ccc3ncnc(Nc4ccc(OCc5cccc(F)c5)c(Cl)c4)c3c2)o1 [lapatinib] + CCCS(=O)(=O)Nc1ccc(F)c(C(=O)c2c[nH]c3ncc(Cl)cc23)c1F [PLX4720] (first compound 4 µM, partner dose 0.4 µM) | 41.6 | 69.3 | 77.6 | 51 | 116 | 31.3 | 84.6 | 67.1 | 69.1 | 40.7
20 | CNC(=O)c1cc(Oc2ccc(NC(=O)Nc3ccc(Cl)c(C(F)(F)F)c3)cc2)ccn1 [sorafenib] + CC(C)(C)c1cnc(CSc2cnc(NC(=O)C3CCNCC3)s2)o1 [SNS-032] (first compound 2 µM, partner dose 0.05 µM) | 68.2 | 57.1 | 84.8 | 62.4 | 82.7 | 76.2 | 67.4 | 87.5 | 54.6 | 90.8

Reference: the supplement of paper PMC4604168 (melanoma cell lines)
